{"source": "the supplement of paper PMC3334620", "note": "Whole data set: some 33,000 sequences, median “E-score (-0.5 to 0.5)” near -0.016, cut for the highest 2% near 0.31. This is one part of the list.", "data": [{"target": "Cst6 (UniProt P40535)", "experiment": "PBM E-score (8-mer binding enrichment) (E-score (-0.5 to 0.5)); higher = stronger / more preferred TF binding; most listed sequences are background and not binding sites", "settings": "protein concentration: 200 nM; construct: GST-DNA-binding domain", "how_it_was_run": "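E-scores (a modified Wilcoxon-Mann-Whitney statistic) were assigned by the Universal PBM Analysis Suite to every ungapped eight-base word pooled with its reverse complement. The input came from universal all-10-mer Agilent arrays made double-stranded by primer extension and probed with GST-tagged yeast transcription factors at about 100-200 nM. Fluorescent anti-GST detected bound protein, and masliner normalised the scans.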", "values": [{"sequence": "ACTGCGGG", "PBM E-score": -0.0734}, {"sequence": "AAATGACT", "PBM E-score": 0.0956}, {"sequence": "GCAGGTTA", "PBM E-score": -0.238}, {"sequence": "TACTGCTA", "PBM E-score": -0.0621}, {"sequence": "ATCTGCTC", "PBM E-score": -0.107}, {"sequence": "AAACACAT", "PBM E-score": 0.106}, {"sequence": "AGGGCCCT", "PBM E-score": -0.244}, {"sequence": "CAACGGCC", "PBM E-score": -0.183}, {"sequence": "AAGTGTAA", "PBM E-score": -0.102}, {"sequence": "ACTCACTG", "PBM E-score": 0.0658}, {"sequence": "AACAACAA", "PBM E-score": 0.218}, {"sequence": "AAACGCGC", "PBM E-score": -0.023}, {"sequence": "CGTGTGCA", "PBM E-score": 0.0106}, {"sequence": "CACCCGTC", "PBM E-score": 0.13}, {"sequence": "CAAGTGGG", "PBM E-score": -0.119}, {"sequence": "ACAGGTAG", "PBM E-score": -0.114}, {"sequence": "AGCAAGGA", "PBM E-score": -0.243}, {"sequence": "AAAGTCAT", "PBM E-score": 0.131}, {"sequence": "AGCCATTG", "PBM E-score": 0.0412}, {"sequence": "AGATCCAC", "PBM E-score": 0.0314}, {"sequence": "AATGTGAC", "PBM E-score": 0.197}, {"sequence": "GAGCGGAA", "PBM E-score": 0.0896}, {"sequence": "CACGAGGG", "PBM E-score": -0.349}, {"sequence": "AGGACTAA", "PBM E-score": -0.0307}, {"sequence": "CGCGATAG", "PBM E-score": 0.109}, {"sequence": "AAACGCAC", "PBM E-score": 0.0711}, {"sequence": "GAGAACTC", "PBM E-score": -0.209}, {"sequence": "AACAGCCC", "PBM E-score": 0.0474}, {"sequence": "ATCGTACG", "PBM E-score": 0.0804}, {"sequence": "AGTGCCTC", "PBM E-score": -0.013}, {"sequence": "AATAGCCA", "PBM E-score": 0.134}, {"sequence": "GTTGCAAA", "PBM E-score": 0.0995}, {"sequence": "AATTAATC", "PBM E-score": 0.197}, {"sequence": "AGGGTCTC", "PBM E-score": -0.24}, {"sequence": "CTGCATGC", "PBM E-score": 0.00613}, {"sequence": "CTCCGCGC", "PBM E-score": -0.15}, {"sequence": "GATCTCAC", "PBM E-score": 0.148}, {"sequence": "CCGACTAA", "PBM E-score": -0.144}, {"sequence": "ATCTATGC", "PBM E-score": "4e-05"}, {"sequence": "TCTCGTCA", "PBM E-score": 0.329}, {"sequence": "AAGATCAA", "PBM E-score": 0.222}, {"sequence": "GACACTAA", "PBM E-score": -0.0292}, {"sequence": "CGTGGAGA", "PBM E-score": -0.2}, {"sequence": "ACGATTCG", "PBM E-score": 0.0336}, {"sequence": "GGCTTAAC", "PBM E-score": -0.0412}, {"sequence": "ATGAGCGG", "PBM E-score": 0.03}, {"sequence": "GAGGCAAC", "PBM E-score": -0.113}, {"sequence": "AAGGGATG", "PBM E-score": -0.131}, {"sequence": "CGCTGCTA", "PBM E-score": -0.27}, {"sequence": "TCCACCGA", "PBM E-score": -0.102}, {"sequence": "GTTGGTAA", "PBM E-score": 0.177}, {"sequence": "ACGTCCAA", "PBM E-score": 0.154}, {"sequence": "GCTTATAC", "PBM E-score": 0.0687}, {"sequence": "AGAGAGTA", "PBM E-score": 0.0551}, {"sequence": "TCTGGAAA", "PBM E-score": 0.125}, {"sequence": "CCCAGGTA", "PBM E-score": -0.278}, {"sequence": "CCCCTCGA", "PBM E-score": 0.00621}, {"sequence": "CAATGGGC", "PBM E-score": -0.165}, {"sequence": "GAGATTGA", "PBM E-score": 0.0292}, {"sequence": "CATTCCCA", "PBM E-score": -0.0105}, {"sequence": "ATGCCGCA", "PBM E-score": 0.353}, {"sequence": "ACCTGGAA", "PBM E-score": 0.154}, {"sequence": "AGACGACA", "PBM E-score": -0.106}, {"sequence": "ACCATAAG", "PBM E-score": -0.00358}, {"sequence": "ATATCTGA", "PBM E-score": 0.237}, {"sequence": "ACCATTTA", "PBM E-score": 0.205}, {"sequence": "CTGCGGTA", "PBM E-score": 0.0375}, {"sequence": "CCAATGCG", "PBM E-score": -0.0588}, {"sequence": "GTTGAAGA", "PBM E-score": 0.00973}, {"sequence": "TTACCTAA", "PBM E-score": 0.238}, {"sequence": "GAATATTA", "PBM E-score": 0.188}, {"sequence": "GGGCGTAC", "PBM E-score": -0.134}, {"sequence": "CCCAGCTA", "PBM E-score": -0.2}, {"sequence": "GCTCATCC", "PBM E-score": -0.0964}, {"sequence": "AAACCGCC", "PBM E-score": 0.0699}, {"sequence": "CGCACGTA", "PBM E-score": 0.103}, {"sequence": "ACGCCCCC", "PBM E-score": -0.274}, {"sequence": "CAGACGTA", "PBM E-score": 0.0968}, {"sequence": "GACCAAGA", "PBM E-score": -0.0252}, {"sequence": "TTCACAAA", "PBM E-score": 0.0753}, {"sequence": "CAGGGATA", "PBM E-score": -0.0197}, {"sequence": "CCCGCGCC", "PBM E-score": -0.026}, {"sequence": "AGAACGTA", "PBM E-score": 0.0775}, {"sequence": "AATTAGCG", "PBM E-score": 0.0582}, {"sequence": "ACTTCCAG", "PBM E-score": -0.0948}, {"sequence": "AGTAGCCG", "PBM E-score": -0.00111}, {"sequence": "AGAGTAAT", "PBM E-score": 0.243}, {"sequence": "TCATTGCA", "PBM E-score": 0.321}, {"sequence": "TCTCAACA", "PBM E-score": 0.0426}, {"sequence": "GAACTCGC", "PBM E-score": 0.0267}, {"sequence": "AGGGACAG", "PBM E-score": -0.379}, {"sequence": "CGCCCAAC", "PBM E-score": -0.203}, {"sequence": "CAATGCGA", "PBM E-score": 0.136}, {"sequence": "ACCGCTGG", "PBM E-score": -0.195}]}]}
